The subject of this assay is bacteria. Nature of the assay: antibacterial activity by the streak plate test (in words). The class given is cell-based. How it is done: The compound was tested for antibacterial and antifungal activity by the streak plate test, which is known in the art. The test substance was incorporated into several portions of an agar medium at several known concentrations and the mixtures were placed in Petri dishes. Then streaks of test organisms were applied to the surface of the medium, the dishes were incubated under growth-promoting conditions, and then examined for growth of organisms. The results are reported as the Inhibition End-Point Range, the lower figure signifying a concentration that allows growth and the higher figure being a concentration that inhibits growth.

The structures appear in SMILES notation.

Consider `CCCCCCCCCCCC(=O)OCC(C)(C)[N+](C)(C)C.[I-]` [Example 2, (2-lauroyloxy-1,1-dimethylethyl)-trimethylammonium iodide], for which the antibacterial activity result is given as “strong antibacterial activity against a variety of bacteria”.

(Values after US4022909A, “Method of inhibiting the growth of bacteria using quaternary ammonium compounds” (IMC Chemical Group, Inc., priority 1976, dated 1977).)
